Among the data in paper PMC2824085, “Identification of Novel Contributions to High-affinity Glycoprotein–Receptor Interactions using Engineered Ligands” (Journal of Molecular Biology, 2010) are Ki values, retold here.

This assay deals with T1, monomeric carbohydrate-recognition domain (CRD) from DC-SIGN (UniProt Q9NNX6 250-404).
T1 construct: DC-SIGN, carbohydrate-recognition domain; it calls the CRD monomeric; also called monomeric CRD; dendritic cell-specific intercellular adhesion molecule 3-grabbing nonintegrin CRD
T1 sequence (looked up): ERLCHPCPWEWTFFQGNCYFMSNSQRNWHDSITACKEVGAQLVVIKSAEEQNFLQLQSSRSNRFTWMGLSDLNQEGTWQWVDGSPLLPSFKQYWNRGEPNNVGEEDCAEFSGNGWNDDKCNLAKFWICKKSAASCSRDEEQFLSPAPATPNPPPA
Nature of the assay: radioligand binding; competition: CRD of DC-SIGN immobilised on polystyrene wells, 125I-labeled mannose-BSA as reporter ligand, competing ligand titrated; KI = concentration for 50% inhibition. Conditions: both partners purified.

B1: soybean agglutinin (natural protein, UniProt P05046 33-285, looked up)
chain: AETVSFSWNKFVPKQPNMILQGDAIVTSSGKLQLNKVDENGTPKPSSLGRALYSTPIHIWDKETGSVASFAASFNFTFYAPDTKRLADGLAFFLAPIDTKPQTHAGYLGLFNENESGDQVVAVEFDTFRNSWDPPNPHIGINVNSIRSIKTTSWDLANNKVAKVLITYDASTSLLVASLVYPSQRTSNILSDVVDLKTSLPEWVRIGFSAATGLDIPGESHDVLSWSFASNLPHASSNIDPLDLTSFVLHEAI
modifications: a single, uniform Man9GlcNAc2 oligosaccharide on each subunit
notes: also called SBA; intact soybean agglutinin
Regarding B1, the Ki is 2.4 µM.

By Ki is commonly meant the equilibrium dissociation constant of an inhibitor or competing ligand from its target.
